Assay results as given in the RNAGym collection of RNA variant scans (doi:10.1073/pnas.2313332121).
Variants at the background level are over-represented here.

B1: TPR 5TU (parent)
chain: GGAUCUUCUCGAUCUAACAAAAAAGACAAAUCUGCCACAAAGCUUGAGAGCAUCUUCGGAUGCAGAGGCGGCAGCCUUCGGUGGCGCGAUAGCGCCAACGUUCUCAACUAUGACACGCAAAACGCGUGCUCCGUUGAAUGGAGUUUAUCAUG

Variants of: B1
Experiment: polymerase ribozyme fitness, log enrichment relative to wild type (log ratio); higher = more active; in vitro selection for triplet polymerase activity
In short: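 Libraries of mutants in each subunit of a heterodimeric triplet polymerase ribozyme were generated by PCR and transcribed. In triplicate, each went through one in vitro selection round: annealing with biotinylated primer, partner subunit and triplets; frozen incubation at −7 °C; gel excision of extended constructs; streptavidin-bead capture; RT-PCR. Fitness, taken from Illumina sequencing of input and output libraries, is the logarithm of a genotype's enrichment over wild-type enrichment, averaged across replicates with inverse-variance weights. The logarithm is base 2, and genotypes needed ≥10 input reads and ≥1 read per output to be kept.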

GGAUCUUCUCGAUCUAACAAAAAAGUCAAAUCUGCCACAAAGCUUGAGAGCAUCGUCGGAUUCAGAGGCGGCAGCCUUCGGUGGCGCGAUAGCGACAACGUUCUCAACUAUGACACGCAAAACGCGUGCACCGUUGAAUUGAGUUUUUCAUG and GGAUCUUCUCGAUCUAACAAAAAAGUCAAAUCUGCCACAAAGCUUGAGAGCAUCGUCGGAUGCAGAGGCGGCAGCCUUCGGUGGCCCGAUAGCGCUCAAGUGCUCAACUAUGACACGCAAAACGCGUGCUCCGUUGAAUGGAGUUUAUCAUG cannot be ordered by “polymerase ribozyme fitness (log ratio)” value: at most -4.2 for the first, at most -4.2 for the second.

GGAUCUUCUCGAUCUAACAAAAAAGUCAAAUCUGCCACAAAGCUUGAGAGCAUCUUCGGAAGCAGAGGCGGCAGCCUUCGGUGGCGGGAUAGCGCCAACGCUCUCAACUAUGACAUGCAAAUCGCGUGCUCCGUUGAAUGGAGUUUAUCAUG and GGAUCUUCUCGAUCUAACAAAAAAGUCAAAUCUGCCACAAAGCUUGAGAGCAUCUUCGGAAGCAGAGGCGCCAGCCUUUGGUGGCGCGAUAGCGCCAGCGUUCUCAACUAUGACACGCAAAACGCGUGCUCCGUUGAAUGGAGUUUAUCAAG cannot be ordered by “polymerase ribozyme fitness (log ratio)” value: at most -4.2 for the first, at most -4.2 for the second.

GGAUCUUCUCGAUCUAACAAAAAAGUCAAAUCUGCCACAAAGCUUGAGAGCAUCUUCGGAGGCAGAGGCGGCAGCCUUCGGUGGCGCGAUAGCGCCGACGUUCUCAACUAUGACACGCAAAACGCGUGCUCCGUUGAAUGGAGUUUAUCGUG and GGAUCUUCUCGAUCUAACAAAAAAGUCAAAUCUGCCACAAAGCUUGAGAGCAUCUUCGGAUGCAGAGGCGGCAGCCUCCGGUGGCGCGAUAGCAACAGCGUUCUCAACUAUGACACGCAAAACGCGUGCUCCGUUGAGUGGAGUUUAUCAUG cannot be ordered by “polymerase ribozyme fitness (log ratio)” value: at most -4.2 for the first, at most -4.2 for the second.

GGAUCUUCUCGAUCUAACAAAAAAGUCAAAUCUGCCACAAAGCUUGAGAGCAUCUUCGGAUGCAGAGGCGGCAGCCUGCGGUGGUGCGAUAGCGCCAACGUUCUCAACUAUGACACGCAAAACGCGUGCUCCGUUGAAUGGAGUUUAACAUG and GGAUCUUCUCGAUCUAACAAAAAAGAAUAAUCUGCCACAAAGCUUGAGUGCAUCUUCGGAUGCAGCGGCGGCAGCCUUCGGUGGCGCGAUAACGCCAACGUUCUCAACUAUGACACGCAAAACACGUGCUCCGUUGAAUGGAGUUUAUCAUG cannot be ordered by “polymerase ribozyme fitness (log ratio)” value: at most -4.2 for the first, at most -4.2 for the second.

Compared with GGAUCUUCUCGAUCUAACAAAAAAGAAUAAUCUGCUACAAAGCUUGAGAGCAUCUUCGGAUGCAGACGCGGCAGCCUUCGGUGGCGCGAUGGCGCCAACGUUCUCAACUAUGACUCGCAAAACGCGUGCUCCGUUGAAUGGAGUUUAUCGUG, GGAUCUUCUCGAUCUAACAAAAAAGAAAAAUCUGCCUCAAAGCUUGAGAGCAUCUUCGGAUGCAGAGGCGGCAGCCUUCGGUGGCGCGAUCGCGCCAACGUUCUCAACUAUGACACGCAAAACGCGUGCUCCGUUGAAUGGAGUUUAUCAUG is higher in “polymerase ribozyme fitness (log ratio)” value: at most -4.2 for the first, -4.17 for the second.

GGAUCUUCUCGAUCUAACAAAAAAGAAAAAUCUGCCUCAAACCUUGAGAGCAUCUUCGGAUGCAGAGGCGGCAGCCUUCGGUGGCGCGAUAGCGCCAACGUUCUCCACUAUGACAGGCAAGACGCGUACUCCGUUGAAUGGAGUGUAUCAUG and GGAUCUUCUCGAUCUAACAAAAAAGAAAAAUCUGCCACAACGCUUGAGAGCAUCAUCGGAUGCAGAGGCGGCAGCCUUCGGUGGCGCGAUAGCGCCAACGUUCUGAACUAUGACACGCAAAACGCGUGCUCCGUAGAAUGGAGUUUAUCAUG cannot be ordered by “polymerase ribozyme fitness (log ratio)” value: at most -4.2 for the first, at most -4.2 for the second.

GGAUCUUCUCGAUCUAACAAAAAAGAAAAAUCUGCCACAAGGCUUGAGAGCAUCUUCGGAUGCAGAGGCGGAAGCCUUCGGUGGCGCGAUGGCGUCAACGUUAUCAACUAUGACACGCAAAACGCGUGCUCCGUUGAAUGGAGUUUAUCAUG and GGAUCUUCUCGAUCUAACAAAAAAGAAAAAUCUGCCACAAUGCAUGAGAGCAUCUUCGGAUGCAGAGGCGCCAGCCUUCGGUGGCGCGAUAGGGCCAACGUUCUCAACUAUGACUCGCAAAACGCGUGCUCCGUUGAAUGGAGUUUAUCAAG cannot be ordered by “polymerase ribozyme fitness (log ratio)” value: at most -4.2 for the first, at most -4.2 for the second.

GGAUCUUCUCGAUCUAACAAAAAAGAAAAAUCUGCCACAAAGCUUGCGAGCAUCUUCGGAUGCAGAGGCGGCAGCCUUCGGUGGCGCGAUAGCGCCAACGUUCUCAACUAUGACACGCAUAACGCGUGCUCCGUUGAAAGGAGUUUAUCAUG and GGAUCUUCUCGAUCUAACAAAAAAGAAAAAUCUGCCACAAAGCUUGAGCGCAUGUUCGGAUGCAGAGGCGGCAGCCUUCGGUGGCGUGAUAGCGCCAACGUUCUCAACUAUGACAGGCAAAACGCGUGCUCCGAUGAAUGGAGUUUAUCAUG cannot be ordered by “polymerase ribozyme fitness (log ratio)” value: at most -4.2 for the first, at most -4.2 for the second.

GGAUCUUCUCGAUCUAACAAAAAAGAAAAAUCUGCCACAAAGCUUGAGAGCGUCUUCGCAUGCAGAGGCGGCAGCUUUCGGUGGCACGAUGGCGCCAACGUUCUCAACUAUGACAAGCAAAACGAGUGCUCCGUUGAAUGGAGUUUAUCAUG and GGAUCUUCUCGAUCUAACAAAAAAGAAAAAUCUGCCACAAAGCUUGAGAGCAUCUUCGGUUGCAGAGGCGGCAGCCUUCGGUGGCGCGAUUGCGCCAACGUUCUCUACUAUGACACGCAAAACGCGUGCUCCGUUGAAUGGAGUUUAUCAUG cannot be ordered by “polymerase ribozyme fitness (log ratio)” value: at most -4.2 for the first, at most -4.2 for the second.

For GGAUCUUCUCGAUCUAACAAAAAAGAAAAAUCUGCCACAAAGCUUGAGAGCAUCUUCGGUUGCAGAGGCGGCAGCCUUCGGUGGCGCGAUAGCGCCAACGUUCUCAACUAUGACACGCAAAACGCGUGCUCCAUCGAAUGGAGUUUAUCUUG, the “polymerase ribozyme fitness (log ratio)” value was at most -4.2.
